Source: PubChem BioAssay AID463173 (ICCB-Longwood Screening Facility, Harvard Medical School, 2010)
Among all 52,000 compounds or so, about 1,700 (3.3%) were called active. Rule as the data show it: active = survival mostly below about 52% (no sharp cut-off); inactive = mostly above about 56%. The list shows a part of the results.

Tested on: Wild type
Experiment: S. aureus survival, RN4220 and DeltatarO strains – OD600, teichoic acid synthesis inhibitors, primary screen (AID 463173)
Details: S. aureus RN4220 wild type/DeltatarO growth, OD600, 18 h, active compounds read low, screened at 18.75 µg/mL (by protocol)

Compound	survival
CC(=O)c1cccc(NC(=O)CSc2nnc3ccc(-c4ccc(C)cc4)nn23)c1	inactive: 85%
CN(C)S(=O)(=O)c1ccc2c(c1)N(CC(=O)NCc1cccc(Br)c1)C(=O)CS2	inactive: 77%
O=C(NCc1ccco1)C1CCN(C(=O)N2CCOc3ccc(Cl)cc32)CC1	inactive: 94%
O=C1CC(c2nnc(Cc3ccc(Cl)cc3)o2)CN1c1ccccc1 (stereo not given)	inactive: 103%
CCn1c(=N)c(C(=O)NC2CCCCC2)cc2c(=O)n3cccc(C)c3nc21	inactive: 125%
O=c1cc2nc(-c3cccs3)nc(SCCOc3ccc(Cl)cc3)n2[nH]1	inactive: 77%
COc1ccccc1-c1nnc2n(CCc3ccccc3)c(=O)c3ccccc3n12	inactive: 67%
Cc1ccc(-c2nnc(NC(=O)c3ccc4c(c3)OCCO4)o2)c(C)c1	inactive: 72%
Cc1ccc(C)c(Cn2c(=O)n(Cc3ccc(C(=O)NC4CCN(Cc5ccccc5)CC4)cc3)c(=O)c3ccccc32)c1	inactive: 77%
COc1cccc(-n2cc(C(=O)Oc3cccc(C(F)(F)F)c3)c3ccccc3c2=O)c1	inactive: 136%
Cc1ccc(O)c(NC(=O)c2noc3c2CCCCC3)c1	inactive: 70%
CC(=O)N1c2ccccc2CC1C(=O)N1CCN(c2cccc(Cl)c2)CC1 (stereo not given)	inactive: 77%
O=C(CC1C(=O)N(c2ccc(F)cc2)C(=O)N1Cc1ccc2c(c1)OCO2)Nc1ccc(F)cc1 (stereo not given)	inactive: 72%
CCOc1ccc(OCC)c(NC(=O)C(NS(=O)(=O)c2ccc(Br)s2)c2ccccc2)c1 (stereo not given)	inactive: 89%
COc1cccc(CNC(=O)CN2C(=O)CCCc3ccccc32)c1OC	inactive: 135%
CCN(c1ncnc2c1cnn2-c1cc(Cl)ccc1C)C1CCCCC1	inactive: 80%
CCc1ccc(NC(=O)c2ccc3oc(=O)n(Cc4ccccc4)c3c2)cc1	active: 1%
Nc1c(-c2nc(-c3cccs3)no2)nnn1-c1cccc(F)c1	inactive: 95%
Cc1ccc(C)c(CN2C(=O)c3ccccc3S(=O)(=O)c3ccc(C(=O)N4CCCC4)cc32)c1	inactive: 82%
CCc1c(C)nc2c(OC)cccc2c1Cl	inactive: 113%
CCc1sc(Nc2ccc(C)cc2Br)nc1-c1cc2cccc(OC)c2oc1=O	inactive: 68%
CC(=O)NCCNc1nc2c(-c3ccc(C)cc3)nnn2c2ccccc12	inactive: 82%
CCOC(=O)CSc1nc2c(sc3ccccc32)c(=O)n1Cc1ccc(C)cc1	inactive: 80%

Compound	survival
CNC(=O)C1CCN(Cc2cc3ccccc3n2Cc2ccccc2C)CC1	inactive: 77%
CCCN(CCC)C(=O)Cn1c(=O)n(-c2ccc(C)cc2)c(=O)c2ccc(C(=O)NCc3ccccc3Cl)cc21	inactive: 86%
Cc1ccc(-c2cn3c(n2)sc2cc(C(=O)NCc4cccs4)ccc23)cc1	inactive: 87%
Cc1oc(-c2ccccc2)nc1CSc1nnc(C)n2c1cc1sccc12	inactive: 83%
CCOCCCNC(=O)CCC(=O)NNc1nc2ccccc2c2nc(-c3ccccc3)nn12	inactive: 81%
O=C(CCc1nnc2n(Cc3ccccc3Cl)c(=O)c3ccccc3n12)Nc1ccc(F)c(F)c1	inactive: 89%
Cc1ccc(-n2nc(CO)c(C(=O)NCC(c3ccccc3)c3ccccc3)n2)cc1	inactive: 95%
O=C(NCc1cccc(Br)c1)C1CCN(C(=O)c2sccc2-n2cccc2)CC1	inactive: 91%
CCCCNC(=O)Cn1c(=O)cc(C)c2c(C)nn(-c3ccc(CC)cc3)c21	inactive: 66%
CCC1CN(C(=O)N2CCC(C(=O)NCCc3ccc(C)cc3)CC2)c2ccccc2O1 (stereo not given)	inactive: 86%
Oc1cccc(N=Cc2c[nH]c3ccccc23)c1	inactive: 99%
COc1cccc(Nc2cc(-c3ccccc3)nc(C)n2)c1	inactive: 49%
Cc1ccc(C)c(N2CCN(C(=O)c3cc(S(=O)(=O)N4CCCC4)c[nH]3)CC2)c1	inactive: 112%
CCCOc1ccc(C(=O)Nc2ccc(NC(=O)c3cccc(Cl)c3)cc2)cc1	inactive: 80%
CCOC(=O)c1cc2oc(C)cc2n1CC(=O)N(C)C1CCCCC1	inactive: 115%
Cc1cccc(Nc2ncnc3c2cnn3C)c1C	inactive: 84%
COc1ccc(C)c2sc(N(Cc3cccnc3)C(=O)COc3ccccc3)nc12	inactive: 87%
COc1ccc(NC(=O)c2c(NCc3cccc(OC)c3)sc3c2CCC3)cc1	inactive: 65%
CCc1ccc(S(=O)(=O)Nc2cc(-c3cn4ccccc4n3)ccc2C)cc1	inactive: 94%
Cc1ccc(-n2ncc3c(N4CCN(C)CC4)ncnc32)cc1	inactive: 55%
Cc1ccc2c(c1)N(C(=O)N1CCC(C(=O)NC3CCCCCC3)CC1)CCO2	inactive: 82%
COc1cc(OC)cc(C(=O)NCc2ccc3c(c2)CCN3C(=O)c2ccccc2)c1	inactive: 84%
